The values below come from patent US20220112284A1 (Innovent, published 2022).

The target in test [1] is T1, human PD-L1-his (human, UniProt Q9NZQ7 part only).
T1 construct: Bought reagent; also called PD-L1 protein; not shown: His tag
Kind of test: ForteBio Octet BLI; antibody on AHQ tip, human PD-L1-His 100 nM in solution. The procedure:
(§1) The equilibrium dissociation constant (KD) for the binding of the prepared exemplary anti-LAG-3/PD-L1 bispecific antibody IGN-LP disclosed herein to LAG-3 and PD-L1 was determined by a kinetic binding assay using the Octet system manufactured by ForteBio. A ForteBio affinity assay was performed according to the method reported in the literature (Estep, P, et al., High throughput solution Based measurement of antibody-antigen affinity and epitope binning MAbs, 2013, 5(2): p. 270-278). Briefly:
(§2) The anti-human IgG Fc biosensor AHQ was immersed in each well containing the antibody solution at room temperature for 600 s to load the samples. The sensor was then washed in SD buffer until it returned to the baseline, and then immersed in a well containing 100 μL of the antigen solution to monitor the binding of the antibody to the antigen. The sensor was then transferred to a well containing 100 uL of the SD buffer to monitor the antibody dissociation (the operation procedures were set as: Baseline, Loading ˜1 nm, Baseline, Association and Dissociation, each running for a time depending on the binding and dissociation rates of the samples). The rotation speed was 400 rpm and the temperature was 30° C. […]
(In BLI a coated tip is dipped into the sample, and binding shifts an interference pattern.)

In test [2] the target is T2, human PD-L1 on CHOS cells overexpressing PD-L1 (CHOS-PD-L1) (human, UniProt Q9NZQ7).
T2 construct: whole, on cells; also called CHO-PD-L1; PD-L1 on the cell surface
The test can be described thus: FACS on CHOS-PD-L1 cells, PE anti-human Fc detection. The method, then:
(§3) 2) Detection: The cell suspension was centrifuged at 400 g on a centrifuge for 5 min to remove the cell culture medium. The serial dilutions of the bispecific antibody IGN-LP disclosed herein and anti-humanized Nb-Fc and anti-LAG-3 antibody ADI31853 as controls were added to the U-shaped plate at 100 μL each, and then the cells were resuspended and put onto the ice to stand for 30 min. The cell suspension was centrifuged at 400 g for 5 min to remove the supernatant, and the cells were washed with PBS to remove the unbound antibodies. The resulting cell suspension was centrifuged at 400 g for 5 min to remove PBS. 100 μL of the solution of PE-conjugated anti-human Fc antibody (Jackson Immuno Research) diluted at a ratio of 1:200 was added to each well, and the cells were incubated in the dark on the ice for 30 min. Then the cell suspension was centrifuged at 400 g for 5 min to remove the supernatant. The cells were washed with PBS once to remove the unbound PE-conjugated anti-human Fc antibody. Then the cells were resuspended with 100 μL of PBS, and the binding of the antibody to cells was assayed by FACS.

Test [3] concerns the target T1, human PD-L1-his. Kind of test: ForteBio Octet BLI; antibody on AHQ tip, human PD-L1-His 100 nM in solution, monovalent. The method, then: as §1, §2
The target of test [4] is T3, human LAG-3-his (human, UniProt P18627 23-450).
T3 construct: Bought reagent; also called LAG-3 protein; not shown: His tag
T3 sequence (looked up): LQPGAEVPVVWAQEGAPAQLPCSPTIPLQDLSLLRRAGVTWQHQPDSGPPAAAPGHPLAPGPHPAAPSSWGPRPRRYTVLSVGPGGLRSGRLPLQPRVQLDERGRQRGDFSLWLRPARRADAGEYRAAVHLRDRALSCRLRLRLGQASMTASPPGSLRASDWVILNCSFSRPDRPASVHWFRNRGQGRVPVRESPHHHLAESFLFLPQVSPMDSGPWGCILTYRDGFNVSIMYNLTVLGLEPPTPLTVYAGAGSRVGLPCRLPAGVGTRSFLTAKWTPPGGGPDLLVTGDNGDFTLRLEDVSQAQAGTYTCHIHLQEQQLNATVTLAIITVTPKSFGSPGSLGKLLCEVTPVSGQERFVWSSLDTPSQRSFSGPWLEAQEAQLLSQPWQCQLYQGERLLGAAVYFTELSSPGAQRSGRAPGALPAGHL
The test can be described thus: ForteBio Octet BLI; antibody on AHQ tip, human LAG-3-His 100 nM in solution, monovalent. The method, then: as §1, §2

Test [5] has as its target T4, human LAG-3 on 293 cells overexpressing human LAG-3 (293-LAG-3) (human, UniProt P18627 23-525).
T4 construct: whole, on cells; also called LAG-3 on the cell surface
T4 sequence (looked up): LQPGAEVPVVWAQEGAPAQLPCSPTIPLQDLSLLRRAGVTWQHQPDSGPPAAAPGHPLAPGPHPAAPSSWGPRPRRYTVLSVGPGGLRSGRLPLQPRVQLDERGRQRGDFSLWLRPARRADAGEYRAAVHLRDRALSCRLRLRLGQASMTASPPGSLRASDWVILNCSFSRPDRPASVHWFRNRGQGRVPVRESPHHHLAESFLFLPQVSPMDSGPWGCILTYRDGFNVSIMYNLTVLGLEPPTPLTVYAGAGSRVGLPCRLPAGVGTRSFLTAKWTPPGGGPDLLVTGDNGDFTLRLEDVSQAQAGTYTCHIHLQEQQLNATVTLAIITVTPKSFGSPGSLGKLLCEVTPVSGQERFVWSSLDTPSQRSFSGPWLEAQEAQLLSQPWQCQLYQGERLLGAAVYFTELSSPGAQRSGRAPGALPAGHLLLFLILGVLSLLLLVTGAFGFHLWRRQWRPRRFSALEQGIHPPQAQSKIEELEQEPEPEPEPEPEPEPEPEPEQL
The test can be described thus: FACS on 293-LAG-3 cells, PE anti-human Fc detection. The procedure: as §3

In test [6] the target is T3, human LAG-3-his. The test can be described thus: ForteBio Octet BLI; antibody on AHQ tip, human LAG-3-His 100 nM in solution. The method, then: as §1, §2

T1 sequence (Q9NZQ7 19-238 limits assumed): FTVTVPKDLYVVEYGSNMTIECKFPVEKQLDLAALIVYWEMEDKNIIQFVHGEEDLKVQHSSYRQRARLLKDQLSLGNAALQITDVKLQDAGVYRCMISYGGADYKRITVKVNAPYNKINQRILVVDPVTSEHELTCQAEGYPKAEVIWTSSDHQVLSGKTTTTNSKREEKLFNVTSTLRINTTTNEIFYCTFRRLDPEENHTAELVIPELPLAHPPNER

B1: anti-LAG-3/PD-L1 bispecific antibody IGN-LP (bispecific antibody)
heavy: QLQLQESGPGLVKPSETLSLTCTVSGGSIYSESYYWGWIRQPPGKGLEWIGSIVYSGYTYYNPSLKSRVTISVDTSKNQFSLKLSSVTAADTAVYYCARVRTWDAAFDIWGQGTMVTVSSASTKGPSVFPLAPSSKSTSGGTAALGCLVKDYFPEPVTVSWNSGALTSGVHTFPAVLQSSGLYSLSSVVTVPSSSLGTQTYICNVNHKPSNTKVDKKV[sequence of human IgG1 Fc with changes not given]GGGGSGGGGSQVQLQESGGGLVQPGGSLRLSCAASAYTISRNSMGWFRQAPGKGLEGVAAIESDGSTSYSDSVKGRFTISLDNSKNTLYLEMNSLRAEDTAVYYCAAPKVGLGPRTALGHLAFMTLPALNYWGQGTLVTVSS
light: DIQMTQSPSSLSASVGDRVTITCQASQDISNYLNWYQQKPGKAPKLLIYDASNLETGVPSRFSGSGSGTDFTFTISSLQPEDIATYYCQQVLELPPWTFGGGTKVEIKRTVAAPSVFIFPPSDEQLKSGTASVVCLLNNFYPREAKVQWKVDNALQSGNSQESVTEQDSKDSTYSLSSTLTLSKADYEKHKVYACEVTHQGLSSPVTKSFNRGEC
notes: also called anti-PD-L1/LAG-3 bispecific antibody
A word on the koff: it is the rate constant with which the complex falls apart. High values mean fast dissociation, low ones slow dissociation. By kon is commonly meant the second-order rate constant of association. High values mean fast association, low ones slow association. In general, EC50 refers to the midpoint of the concentration-response curve. High values mean a need for much substance, low ones an effect from little substance. In general, Kd refers to the free concentration of one partner at which half of the binding sites on the other are occupied at equilibrium, for simple one-to-one binding. Read a high Kd as weaker binding. B1: in test [1], the koff was determined as 0.00584 s⁻¹. Besides, the values for the kon in test [1] and in test [6] were 347000 M⁻¹ s⁻¹ and 117000 M⁻¹ s⁻¹, respectively. In addition, the EC50 in test [2] is 1.03 nM; in test [5], 0.434 nM. For the same molecule, the results for the Kd in test [3] and in test [4] were 16.8 nM and 1.71 nM, respectively.
